# Test results as given in patent publication US20090143279A1 (priority 2007, published 2009).
# Like-named read-outs stand apart in the source and are kept apart here.
# System: cellular ATP levels
# [1] = composite Z-score vs DMSO, Conc 20 μM
# [2] = 20 μM, composite Z-score vs DMSO
# [3] = Table 4, C2C12 myotubes, 48 h, composite Z-score
# [4] = normalized composite Z-score vs mock-treated (DMSO) wells, Conc 20 μM
# [5] = composite Z-score vs mock-treated (DMSO) wells, Conc 20 μM
# [6] = Conc 20 μM, normalized score vs mock-treated (DMSO) wells
# [7] = composite Z-score vs DMSO wells, Conc 20 μM
molecule,measurement,setting,value
CN[C@@H](Cc1c[nH]c2ccccc12)C(=O)O [abrine],ATP (composite Z-score),,0.140
"COCCc1ccc(OCC(O)CNC(C)C)cc1 (centres unmarked) [metoprolol, reference compound]","cellular ATP levels, combination of statin and β-blocker",,neither atenolol nor metoprolol showed an effect
same,ATP,"composite Z-score vs DMSO, Conc 9.58 μM",0.449
same,ATP,[1],1.130
Cc1cc(C2CCCCC2)n(O)c(=O)c1 [ciclopirox olamine],ATP,[2],−1.900
"COc1cc2c(cc1OC)C1C(=O)c3c(cc4c(c3O)C=CC(C)(C)O4)OC1CO2 (stereo not drawn) [beta-toxicarol, reference compound]",ATP,[3],−2.000
same,ATP,[4],−2.000
CC(=O)O[C@H]1C[C@@H](OC(C)=O)C(C)(C)C2C[C@@H](O)[C@]3(C)C(CC[C@@]4(C)[C@H](c5ccoc5)OC(=O)[C@H]5O[C@]543)[C@]21C (some centres unmarked) [7-deacetylkhivorin],ATP,[5],1.348
COC(=O)C[C@H]1C(C)(C)C(=O)[C@@H]2CC3C4=CC(=O)O[C@@H](c5ccoc5)[C@]4(C)CC[C@@H]3[C@@]1(C)C2=O (some centres unmarked) [carapin],ATP,[5],0.175
C[C@H](CCC(=O)O)[C@H]1CC[C@H]2[C@@H]3CC[C@@H]4CCCC[C@]4(C)[C@H]3CC[C@]12C [ursocholanic acid],ATP,[1],0.349
C=C(C)c1cc2cc(C(C)=O)c(O)cc2o1 [euparin],ATP,[5],−1.071
CC1=CC(=O)CC(C)(C)[C@@]1(O)/C=C/C(C)=C\C(=O)O [abscisic acid],ATP,[4],0.509
CC(=O)N[C@@H](CC(=O)O)C(=O)O [N-acetylaspartic acid],ATP (composite Z-score),[6],0.521
CCN1CCN(C(=O)N[C@@H](C(=O)N[C@@H]2C(=O)N3C(C(=O)O)=C(CSc4nnnn4C)CS[C@H]23)c2ccc(O)cc2)C(=O)C1=O [cefoperazone],ATP,[5],0.164
CC1=CC(=O)[C@H]2C(C)(C)CCC[C@]2(C)[C@@]1(O)CCc1ccoc1 [solidagenone],ATP,[5],0.314
"CN[C@@H]1C[C@H]2O[C@@](C)([C@@H]1OC)n1c3ccccc3c3c4c(c5c6ccccc6n2c5c31)C(=O)NC4 [staurosporine, reference compound]",ATP,"assay control, FIG. 3 (4)",reduced
C/C1=C\CC/C(C)=C/CC(C)(C)/C=C/C1 [humulene],ATP,[4],0.403
"CCC(C)C(OC(C)=O)C(=O)O[C@H]1[C@H](O)[C@@H]2[C@@]3(C)C=CC(=O)C(C)(C)[C@@H]3C[C@@H](OC(=O)C(O)C(C)C)[C@@]2(C)[C@@]23O[C@@H]2C[C@@H](c2ccoc2)[C@]13C (some centres unmarked) [heudelottin C, reference compound]",ATP (composite Z-score),[6],0.840
same,ATP,[3],0.840
C=C1C2CC[C@@]3(C)[C@H](c4ccoc4)OC(=O)C[C@]13O[C@H]1C[C@H](OC(C)=O)C(C)(C)[C@H](CC(=O)OC)[C@@]21C,ATP (composite Z-score),[6],0.081
"C=CC(C)(O)CCC=C(C)C (single isomer, unassigned; (+)) [(+)-linalool]",ATP (composite Z-score),[6],−0.323
CC(=O)O[C@@H]1CC2C(C)(C)[C@H](O)C=C[C@]2(C)C2CC[C@]3(C)C(=CC(=O)O[C@H]3c3ccoc3)[C@@]21C (stereo partly drawn) [3-alpha-hydroxydeoxygedinin],ATP (composite Z-score),[6],0.418
NS(=O)(=O)c1cc(C2(O)NC(=O)c3ccccc32)ccc1Cl (centres unmarked) [chlorthalidone],ATP,[2],0.323
O=C(Oc1cc(OC(=O)c2ccccc2)c2c(c1)O[C@H](c1ccc(OC(=O)c3ccccc3)c(OC(=O)c3ccccc3)c1)[C@@H](OC(=O)c1ccccc1)C2)c1ccccc1 [catechin pentabenzoate],ATP (composite Z-score),[6],0.169
CC(C)=CCC[C@](C)(O)C1CC=C(C)CC1 (some centres unmarked) [bisabolol],ATP,[1],0.982
C#CCCCCCCCCCCCC(O)CC(O)CO (centres unmarked) [avocadyne],ATP,[1],−0.278
same,ATP,[4],−0.151
Cc1onc(-c2ccccc2Cl)c1C(=O)N[C@@H]1C(=O)N2[C@@H]1SC(C)(C)[C@@H]2C(=O)O [cloxacillin],ATP,[2],0.231
CC1OC(OC2C(O)COC(OC3C(C)OC(OC4C(OC(=O)C56CCC(C)(C)CC5C5=CCC7C8(C)CCC(OC9OC(CO)C(O)C(O)C9O)C(C)(C)C8CCC7(C)C5(C)CC6O)OCC(O)C4O)C(O)C3O)C2O)C(O)C(O)C1O (centres unmarked) [chrysanthellin A],ATP,[4],−2.958
"CC(C)CCC[C@@H](C)[C@H]1CC[C@H]2[C@@H]3C[C@@H](O)[C@@]4(O)C[C@@H](O)CC[C@]4(C)[C@H]3CC[C@]12C [cholestan-3beta,5alpha,6beta-triol]",ATP (composite Z-score),[6],0.747
"CC(=O)[C@H]1CC[C@H]2[C@@H]3CCC4C[C@H](O)CC[C@]4(C)[C@H]3C[C@H](O)[C@]12C (stereo partly drawn) [dihydroxy (3alpha,12alpha)pregnan-20-one]",ATP,[5],−0.294
C=C1C(=O)O[C@H]2C[C@@H]1C(OC(C)=O)C/C(C)=C/CC/C(C)=C/CC[C@@]2(C)O (some centres unmarked) [crassin acetate],ATP,[5],0.769
Fc1ccc(C(c2ccccc2)(c2ccccc2F)n2ccnc2)cc1 (centres unmarked) [flutrimazole],ATP,[2],0.176
CC1(C)O[C@@H]2C[C@H]3[C@@H]4CCC5=CC(=O)CC[C@]5(C)[C@@]4(F)[C@@H](O)C[C@]3(C)[C@]2(C(=O)CCl)O1 [halcinonide],ATP,[1],−0.401
C[C@H]1O[C@@H](n2cc(F)c(=O)[nH]c2=O)[C@H](O)[C@@H]1O [5-fluoro-5′-deoxyuridine],ATP,[1],0.603
"C=C1c2cccc(O)c2C(=O)C2=C(O)[C@]3(O)C(=O)C(C(N)=O)=C(O)[C@@H](N(C)C)[C@@H]3[C@@H](O)[C@H]12 [methacycline, reference compound]",ATP,[7],−0.365
CC(C)=CCOc1cc2oc(=O)ccc2cc1O [prenyletin],ATP,[5],0.659
CC1CCC(C(C)C)C(OC(=O)c2ccccc2)C1 (centres unmarked) [menthyl benzoate],ATP (composite Z-score),[6],0.906
O=C(O)c1cc([N+](=O)[O-])ccc1NCCCc1ccccc1 [5-nitro-2-phenylpropylaminobenzoic acid],ATP (composite Z-score vs DMSO),,0.261
"COc1cc([C@@H]2c3cc4c(cc3[C@H](O)[C@H]3COC(=O)[C@@H]23)OCO4)cc(OC)c1OC [picropodophyllotoxin, reference compound]",ATP,[1],−0.952
COc1ccc(/C=C/C(=O)O)cc1OC [dimethylcaffeic acid],ATP (composite Z-score),[6],1.552
spiramycin,ATP,[1],0.288
CC(=O)O[C@H]1CC[C@]2(C)C3=CC(=O)[C@]4(C)[C@@H]5[C@H](C[C@H]4[C@@H]3CC[C@H]2C1)O[C@@]1(OCC(C)CC1Br)[C@H]5C (some centres unmarked),ATP (composite Z-score),[6],−0.670
CC(=O)N[C@@H](CC(C)C)C(=O)O [acetyl-L-leucine],ATP,[7],0.771
CCCCN(CCCC)CCC(O)c1cc2c(Cl)cc(Cl)cc2c2cc(C(F)(F)F)ccc12 (centres unmarked) [halofantrine],ATP,"composite Z-score vs DMSO, Conc 8 μM",−0.166
CN(C)c1nc(N(C)C)nc(N(C)C)n1 [altretamine],ATP,[2],0.427
C=C(C)[C@H]1COc2cc3oc(=O)ccc3cc2O1 [obliquin],ATP,[5],1.040
CC(=O)O[C@@H]1CC2C(C)(C)C(=O)[C@@H]3O[C@@H]3[C@]2(C)C2CC[C@]3(C)C(=CC(=O)O[C@H]3c3ccoc3)[C@@]21C (stereo partly drawn) [1 (2)alpha-epoxydeoxydihydrogedunin],ATP,[4],0.869
"COc1cc(-c2coc3cc(OCc4ccccc4)c(OC)c(O)c3c2=O)cc(OCc2ccccc2)c1OC [irigenin, dibenzyl ether]",ATP,[1],0.867
Cc1onc(-c2c(Cl)cccc2Cl)c1C(=O)N[C@@H]1C(=O)N2[C@@H]1SC(C)(C)[C@@H]2C(=O)O [dicloxacillin sodium],ATP,[7],−0.299
"CC[C@H](C)C(=O)O[C@H]1C[C@@H](C)C=C2C=C[C@H](C)[C@H](CC[C@@H]3C[C@@H](O)CC(=O)O3)[C@H]21 [lovastatin, reference compound]",cellular ATP levels,,strong decreases
COc1cc([C@@H]2c3cc4c(cc3[C@@H](O[C@@H]3O[C@@H]5CO[C@@H](C)O[C@H]5[C@H](O)[C@H]3O)[C@H]3COC(=O)[C@H]23)OCO4)cc(OC)c1O [etoposide],ATP,[1],0.749
OC[C@H]1O[C@@](CO)(O[C@H]2O[C@H](CO)[C@@H](O)[C@H](O)[C@H]2O)[C@@H](O[C@H]2O[C@H](CO)[C@@H](O)[C@H](O)[C@H]2O)[C@@H]1O [melezitose],ATP,[4],0.268
COc1ccc2c(c1O)-c1c(OC)c(OC)cc3c1[C@H](C2)N(C)CC3 [isocorydine],ATP (composite Z-score),"Conc 11.72 μM, normalized score vs mock-treated (DMSO) wells",−0.052
same,ATP (composite Z-score),[6],0.593
Oc1c(Cl)cc(Cl)c2cccnc12 [chloroxine],ATP,[7],−1.831
O=C(O)c1cccc(O)c1O [pyrocatechuic acid],ATP,[1],1.015
CC(=O)C[C@H]1CCCCN1 [pelletierine],ATP,[4],1.086
C[C@]12CCC(=O)C=C1CC[C@@H]1[C@@H]2C(=O)C[C@@]2(C)[C@H]1CC[C@]2(O)C(=O)CO [cortisone],ATP,[1],0.319
